Test results as given in paper PMC4336329 (PLoS ONE, 2015).
Screen size: about 310,000 compounds; about 14,000 (4.5%) showed an effect of 50% or more. The effect is printed as a negative number. The list shows a part of the results.

Target: human ether-à-go-go-related gene (hERG) potassium channel (human, UniProt Q12809)
Assay: primary screen, population patch clamp on CHO cells stably expressing hERG
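Note: peak tail current of the secondary pulse compared with the same well before compound.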

human ether-à-go-go-related gene (hERG) potassium channel, sequence (Q12809 whole entry, looked up): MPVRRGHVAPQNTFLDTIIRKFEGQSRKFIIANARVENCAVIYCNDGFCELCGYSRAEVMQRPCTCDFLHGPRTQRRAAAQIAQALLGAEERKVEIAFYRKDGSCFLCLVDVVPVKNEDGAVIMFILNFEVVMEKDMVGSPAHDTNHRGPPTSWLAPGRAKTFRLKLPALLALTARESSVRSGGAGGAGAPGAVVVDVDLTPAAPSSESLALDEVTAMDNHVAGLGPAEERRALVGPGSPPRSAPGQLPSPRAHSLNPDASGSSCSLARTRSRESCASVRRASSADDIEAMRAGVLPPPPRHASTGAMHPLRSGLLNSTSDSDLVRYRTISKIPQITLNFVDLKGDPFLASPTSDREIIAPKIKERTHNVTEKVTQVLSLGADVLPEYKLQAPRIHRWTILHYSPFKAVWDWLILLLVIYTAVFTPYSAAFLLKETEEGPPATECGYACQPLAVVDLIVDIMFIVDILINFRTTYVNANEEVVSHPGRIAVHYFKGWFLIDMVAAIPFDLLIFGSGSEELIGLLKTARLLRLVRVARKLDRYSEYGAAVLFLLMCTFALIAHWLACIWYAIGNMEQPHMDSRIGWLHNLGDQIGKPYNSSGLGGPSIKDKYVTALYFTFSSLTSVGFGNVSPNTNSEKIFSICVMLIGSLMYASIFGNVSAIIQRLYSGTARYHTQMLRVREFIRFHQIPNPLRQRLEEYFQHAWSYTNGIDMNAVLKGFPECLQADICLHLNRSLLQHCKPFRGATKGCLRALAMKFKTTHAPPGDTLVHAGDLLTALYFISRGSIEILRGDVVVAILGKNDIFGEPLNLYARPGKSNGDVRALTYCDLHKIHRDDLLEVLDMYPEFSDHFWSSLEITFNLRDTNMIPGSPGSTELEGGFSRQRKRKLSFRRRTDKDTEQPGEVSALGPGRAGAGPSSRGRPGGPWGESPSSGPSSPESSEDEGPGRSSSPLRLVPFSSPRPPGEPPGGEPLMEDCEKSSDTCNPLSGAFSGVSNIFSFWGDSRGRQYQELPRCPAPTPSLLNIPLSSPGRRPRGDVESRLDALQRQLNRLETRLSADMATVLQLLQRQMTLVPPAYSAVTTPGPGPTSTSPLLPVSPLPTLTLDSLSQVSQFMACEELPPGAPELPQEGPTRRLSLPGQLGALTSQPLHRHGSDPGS

SMILES	hERG current change (%, negative = inhibition) at 10uM [%]
COCCN(C(=O)CSc1nncn1-c1ccccc1)c1c(N)n(Cc2ccccc2)c(=O)[nH]c1=O	11.3
CCOC(=O)Nc1ccc2c(c1)N(C(=O)CCN1CCOCC1)c1ccccc1S2.Cl	-7
CCC1=C(OC(=O)N(CC)CC)N2C(=O)OC(=NCc3ccccc3)[C@]2(C)[C@H]2C1=CC[C@H]1C(=O)N(CC(=O)OC)C(=O)[C@H]12	-1.33
O=C(Nc1ccccc1)Nc1cc(Cl)cc(Cl)c1	13.5
Cn1cnnc1SC/C(O)=C(\C#N)c1nc2ccccc2[nH]1	24.1
Cc1ccc(SCC(=O)Nc2cc([N+](=O)[O-])ccc2O)cc1	12.2
Cc1oc(-c2ccc(Cl)cc2)nc1CS(=O)CC(=O)NCCCN1CCCC(C)C1 (centres unmarked)	-36.8
O=P(Nc1ccccc1)(Nc1ccccc1)Oc1ccccc1	-9.29
CCOc1ccc(NC(=O)CN(C)C(=O)C2CCCC2)cc1OCC	27.8
CC(C)N(C(=O)COC(=O)c1ccc(O)cc1)C(C)C	-1.54
Cc1ccc(NC(=O)c2cccc(S(=O)(=O)N3CCCc4ccccc43)c2)nc1	-13.9
N#CC(C#N)=C1C=CC=CN1/C(=C\c1ccco1)C(=O)c1ccc(Br)cc1	-46.5
COc1ccccc1OCCCCCCN1CCN(C)CC1.O=C(O)C(=O)O	-5.83
COc1cc(OC)cc(C(=O)Nc2ccc(-c3nc4ccccc4o3)c(O)c2)c1	1.35
CN=C1SC(CC(=O)Nc2sc3c(c2C#N)CCCC3)C(=O)N1C (centres unmarked)	22.4
C/C(=N\Nc1ccccc1Cl)c1ccc(-n2ccnc2)cc1	-7.1
O=C(Oc1ccc(OC(=O)N2CCCCC2)cc1)c1ccccc1	-2.07
COc1nc(N2CCOCC2)nc(C)c1[N+](=O)[O-]	-13.5
CCN(Cc1ccc(OC)c(F)c1)C(=O)C1CCCO1 (centres unmarked)	36.5
COC(=O)C1CCCCN1C(=O)c1ccc2oc(C(C)C)nc2c1 (centres unmarked)	4.1
COc1cccc(C(=O)N2CCN(Cc3ccccn3)CC2)c1.O=C(O)C(=O)O	18.8
Cc1ccnc(NC(=O)CCC(=O)N(CC(=O)NC(C)(C)C)c2ccc3c(c2)OCCO3)c1	17.8

SMILES	hERG current change (%, negative = inhibition) at 10uM [%]
O=C1c2ccccc2C(Nc2ccccc2)N1c1cccnc1 (centres unmarked)	-22.1
O=C(NCCc1ccccc1)c1n[nH]c2ccccc12	12.4
CC1=CSC2=NC(C(F)(F)F)(C(F)(F)F)NC(=O)N12	-1.5
CC(Sc1nnnn1-c1ccccc1)C(=O)NC1CCCC1 (centres unmarked)	-6.49
O=C(O)c1c(Cl)cccc1Cl	22.2
CCc1nnc(NC(=O)C23CC4CC(CC(C4)C2)C3)s1	12.3
CCOc1ccc(NC(=O)CN(C)C(=O)c2ccc(OCC3CCCO3)cc2)cc1OCC (centres unmarked)	6.31
Cc1ccc(-n2ncc3ccccc3c2=O)cc1Cl	-3.72
Cc1cc(O)c(-c2n[nH]c3c2C(c2cccc(O)c2)N(Cc2cccnc2)C3=O)cc1Cl (centres unmarked)	11.4
Cc1nc(C(=O)N2CCc3c([nH]c4ccccc34)C2c2ccccn2)cs1 (centres unmarked)	-7.68
COC(=O)CSc1[nH]c2cc(C)ccc2c1[N+](=O)[O-]	21.5
COc1cc2c(cc1NC(=O)CSc1nc3ccccc3[nH]1)oc1ccccc12	15.3
Cc1nn(C)cc1-c1n[nH]c(=S)n1-c1ccc(F)cc1	22.9
CCCCSc1nnc(-c2ccc(NC(=O)CCc3ccccc3)cc2)n1C	20.2
Nc1ccc(C(=O)OCCCc2nc3ccccc3[nH]2)cc1	12.2
Cc1nnsc1C(=O)N1CCCC(N2CCN(c3ccc(F)cc3)CC2)C1 (centres unmarked)	-12.3
O=C(NCc1ccccc1)c1cc[n+]([O-])cc1	4.76
CCN1C(=O)[C@@H]2[C@@H](c3ccc(-c4ccccc4)cc3)N3CCCC[C@@]3(C(=O)OC)[C@@H]2C1=O.O=C(O)C(F)(F)F	13.9
CCOC(=O)C1(Cc2cccc(OC)c2)CCN(Cc2cc(OC)ccc2OC)CC1	-67.2
CCOc1ccc(Cn2c3ccc(OC)cc3c3nc4ccccc4nc32)cc1	15.4
Cc1ccc(C)c(NCc2n[nH]c(=S)n2-c2ccccc2)c1	15
CN(C)c1ccc(/C=C2/C(=N\O)C3CCN2CC3)cc1.Cl	4.49

SMILES	hERG current change (%, negative = inhibition) at 10uM [%]
CCOC(=O)CC1COCCN1C(=O)c1cc(COc2ccc(F)cc2Cl)on1 (centres unmarked)	-23.2
O=C(N/N=C/c1ccc(Br)o1)c1cncc(Br)c1	0.479
Cn1ncc([N+](=O)[O-])c1C(=O)Nc1ccccc1C(=O)O	17.1
NNC(=O)CNC(=O)c1ccc(F)cc1	21.7
CCC1=Nc2cc(C(=O)O)ccc2Sc2ccccc21	21.2
O=C(/C=C\c1ccco1)Nc1nc(-c2ccc3ccccc3c2)cs1	14.2
O=C(Nc1cc(N2CCCCC2)ncn1)c1ccc(F)cc1	-5.58
CCCCCNC(=O)Cc1cc(=O)[nH]c(=O)[nH]1	24.8
O=c1[nH]c(=O)n(-c2ccc(Cl)cc2)c(O)c1C=NCCN1CCCCC1	2.13
CC(C)CNS(=O)(=O)c1ccc(CCC(=O)N2CCN(c3ccc(F)cc3)CC2)cc1	-50.3
O=C(O)CN1C(=O)C(=O)N(Cc2ccc(Cl)cc2Cl)C1=O	19.9
Cc1ccc(C)c(OCCC(=O)OCC(=O)NCCc2ccc(S(N)(=O)=O)cc2)c1	-46.5
Cc1ccc(S(=O)(=O)N[C@H](C(=O)OCC(=O)N2N=C(c3ccc(Cl)cc3)CC2c2ccco2)C(C)C)cc1 (some centres unmarked)	-5.55
Cc1ccc(Cl)c(NC(=S)N(CCCN2CCOCC2)Cc2ccco2)c1	-35.3
CCCc1cc(=O)[nH]c(SCC(=O)N2CCN(c3ccc(F)cc3)CC2)n1	-15.2
CC(C)=N/N=C1/NC(=O)C(CC(=O)Nc2cc(Cl)ccc2C)S1 (centres unmarked)	-1.67
CC1(C)CC(=NO)CC(C)(C)N1	6.44
CCn1c(=O)c2cc(C(=O)NCc3cccs3)sc2c2ccccc21	9.62
CCOC(=O)C1Sc2[nH]c(=O)sc2C(c2ccc(Cl)cc2)C1C(=O)OCC (centres unmarked)	-1.1
O=C1C2C3C=CC([C@@H]2C(=O)N1C1CC1)[C@H]1C(=O)N(C2CC2)C(=O)C31 (some centres unmarked)	10.8
N#Cc1ccccc1OCC(=O)OCC(=O)c1c[nH]c2ccccc12	-18.4
Cc1cc(C)cc(-n2ccnc2SCC(=O)c2c(N)n(C3CC3)c(=O)[nH]c2=O)c1	0.393

SMILES	hERG current change (%, negative = inhibition) at 10uM [%]
COc1ccc(C23CC4CC(CC(C4)C2)C3)cc1C(=O)NCCN(C)C.Cl	-35.6
O=C(NCc1ccccc1Cl)c1ccccc1CCc1ccccc1	18.5
O=C(O)CCC(=O)N1N=C(c2ccccc2)CC1c1cccs1 (centres unmarked)	-0.51
COc1ccc(NC(=S)N2CCN(C(c3ccccc3)c3ccccc3)CC2)c(OC)c1	8.77
Cc1ccccc1-n1c(SCC(=O)NC(N)=O)nc2sc(-c3ccccc3)cc2c1=O	12.1
COc1ccc(OCCSc2ncn[nH]2)cc1	-14
COc1ccc(C)cc1NC(=O)C(Sc1nnnn1C)c1ccccc1 (centres unmarked)	-27.6
COc1cc(/C=C2/C(=N)N3C(=NC2=O)SN=C3S(C)(=O)=O)ccc1OS(=O)(=O)c1ccc(C)cc1	19
CC[C@@]12C(=O)N(c3cccc(Br)c3)C(=O)N1[C@H](c1cccc(C)c1)[C@@H]1C(=O)N(Cc3ccccc3)C(=O)[C@@H]12	10.9
O=c1oc(C2(O)CCCCC2)cc2ccc(/C=C/c3ccc(F)cc3)cc12	19.5
CCOc1cc(/C=C2/SC(=S)N(CC3CCCO3)C2=O)ccc1O (centres unmarked)	17.4
COc1ccc(C2/C=C\CN(C(=O)Nc3ccccc3-c3ccccc3)CC(=O)N2Cc2ccc(F)cc2)cc1 (centres unmarked)	18
CN1C(=O)C2C(c3ccc(N(C)C)cc3)NN(Cc3ccccc3)C2C1=O (centres unmarked)	-0.68
O=C(CSc1ccc2nnc(CCNC(=O)c3ccccc3)n2n1)NCc1ccco1	12.3
CN(C)c1ccc(Nc2nc(N)c([N+](=O)[O-])c(N3CCOCC3)n2)cc1	-6.07
CC1CC(C)CN(C(=O)CN2C(=O)NC3(CCCCCCC3)C2=O)C1 (centres unmarked)	-4.41
CCN(c1ccc(NS(=O)(=O)c2cc(Cl)ccc2Cl)cc1)C(C)C	-0.282
O=c1c2ccccc2nc(CN2CCCCCC2)n1-c1ccc(F)cc1	-14.9
CCOCCCn1c(SCC(=O)Nc2cccc(OC)c2)nc2ccccc2c1=O	-58.4
O=C(Nc1cccc(S(=O)(=O)Nc2ccc(Cl)cc2)c1)c1ccccn1.O=C(O)C(=O)O	-10.8
